# Reference: the supplement of paper PMC8728848
# Some of the results follow.
# Columns and labels:
# Assay in all cases: glycan array binding signal (z-score within array); higher = stronger binding
# Conditions in all cases: glycan notation: IUPAC condensed, linker removed
# [1] = molecular target: GlcNAc(b1-4)GlcNAc(b1-4)GlcNAc(b1-4)GlcNAc(b1-4)GlcNAc(b1-4)GlcNAc
# Procedure, shortened: (§1)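 Glycan array binding is given as a within-array Z-score, which can be read as non-binding when negative. The arrays, 3228 of them, came from the Consortium for Functional Glycomics database and were retained only where the protein sequence was available. Z-scores were averaged across arrays of the same protein sequence at different concentrations or buffers and across linkers.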
# [2] = molecular target: GlcNAc(b1-4)[GlcNAc(b1-6)]GalNAc
# Procedure, shortened: as §1
# [3] = molecular target: GlcNAc(b1-6)Gal(b1-4)GlcNAc
# Procedure, shortened: as §1
# GlcNAc(b1-6)GalNAc = molecular target: GlcNAc(b1-6)GalNAc
# Procedure, shortened: as §1
# [4] = molecular target: GlcNAc6S(b1-3)Gal(b1-4)GlcNAc
# Procedure, shortened: as §1
# Kdn(a2-3)Gal(b1-3)GalNAc = molecular target: Kdn(a2-3)Gal(b1-3)GalNAc
# Procedure, shortened: as §1
# Kdn(a2-3)Gal(b1-3)GlcNAc = molecular target: Kdn(a2-3)Gal(b1-3)GlcNAc
# Procedure, shortened: as §1
# Kdn(a2-3)Gal(b1-4)Glc = molecular target: Kdn(a2-3)Gal(b1-4)Glc
# Procedure, shortened: as §1
# Kdn(a2-3)Gal(b1-4)GlcNAc = molecular target: Kdn(a2-3)Gal(b1-4)GlcNAc
# Procedure, shortened: as §1
# [5] = molecular target: Kdn(a2-3)Gal(b1-4)[Fuc(a1-3)]GlcNAc
# Procedure, shortened: as §1
# Kdn(a2-6)Gal(b1-4)GlcNAc = molecular target: Kdn(a2-6)Gal(b1-4)GlcNAc
# Procedure, shortened: as §1
# [6] = molecular target: Man(a1-2)Man(a1-2)Man(a1-3)Man
# Procedure, shortened: as §1
# [7] = molecular target: Man(a1-2)Man(a1-2)Man(a1-6)[Man(a1-3)]Man
# Procedure, shortened: as §1
# Man(a1-2)Man(a1-3)Man = molecular target: Man(a1-2)Man(a1-3)Man
# Procedure, shortened: as §1
# [8] = molecular target: Man(a1-2)Man(a1-3)[Man(a1-2)Man(a1-6)]Man
# Procedure, shortened: as §1
# [9] = molecular target: Man(a1-2)Man(a1-3)[Man(a1-2)Man(a1-6)]Man(a1-6)[Man(a1-2)Man(a1-2)Man(a1-3)]Man
# Procedure, shortened: as §1
# [10] = molecular target: Man(a1-2)Man(a1-3)[Man(a1-2)Man(a1-6)]Man(a1-6)[Man(a1-2)Man(a1-2)Man(a1-3)]Man(b1-4)GlcNAc(b1-4)GlcNAc
# Procedure, shortened: as §1
# [11] = molecular target: Man(a1-2)Man(a1-3)[Man(a1-6)]Man(a1-6)[Man(a1-2)Man(a1-3)]Man(b1-4)GlcNAc(b1-4)GlcNAc
# Procedure, shortened: as §1
# [12] = molecular target: Man(a1-2)Man(a1-6)[Man(a1-3)]Man(a1-6)[Man(a1-2)Man(a1-2)Man(a1-3)]Man
# Procedure, shortened: as §1
# [13] = molecular target: Man(a1-2)Man(a1-6)[Man(a1-3)]Man(a1-6)[Man(a1-2)Man(a1-2)Man(a1-3)]Man(b1-4)GlcNAc(b1-4)GlcNAc
# Procedure, shortened: as §1
# Man(a1-3)[Man(a1-6)]Man = molecular target: Man(a1-3)[Man(a1-6)]Man
# Procedure, shortened: as §1
# [14] = molecular target: Man(a1-3)[Man(a1-6)]Man(a1-6)[Man(a1-2)Man(a1-3)]Man(b1-4)GlcNAc(b1-4)GlcNAc
# Procedure, shortened: as §1
# [15] = molecular target: Man(a1-3)[Man(a1-6)]Man(a1-6)[Man(a1-3)]Man
# Procedure, shortened: as §1
# [16] = molecular target: Man(a1-3)[Man(a1-6)]Man(a1-6)[Man(a1-3)]Man(b1-4)GlcNAc(b1-4)GlcNAc
# Procedure, shortened: as §1
# [17] = molecular target: Man(a1-3)[Man(a1-6)]Man(b1-4)GlcNAc(b1-4)GlcNAc
# Procedure, shortened: as §1
# [18] = molecular target: Man(a1-3)[Man(a1-6)]Man(b1-4)GlcNAc(b1-4)[Fuc(a1-6)]GlcNAc
# Procedure, shortened: as §1
# Man(a1-6)Man = molecular target: Man(a1-6)Man
# Procedure, shortened: as §1
# Man(b1-4)GlcNAc = molecular target: Man(b1-4)GlcNAc
# Procedure, shortened: as §1
# MurNAc(b1-4)GlcNAc = molecular target: MurNAc(b1-4)GlcNAc
# Procedure, shortened: as §1
# Neu5Ac(a2-3)Gal = molecular target: Neu5Ac(a2-3)Gal
# Procedure, shortened: as §1
# [19] = molecular target: Neu5Ac(a2-3)Gal(b1-3)GalNAc
# Procedure, shortened: as §1
# [20] = molecular target: Neu5Ac(a2-3)Gal(b1-3)GalNAc(b1-3)Gal(a1-4)Gal(b1-4)Glc
# Procedure, shortened: as §1
# [21] = molecular target: Neu5Ac(a2-3)Gal(b1-3)GalNAc(b1-4)Gal(b1-4)Glc
# Procedure, shortened: as §1
# [22] = molecular target: Neu5Ac(a2-3)Gal(b1-3)GalNAc(b1-4)[Neu5Ac(a2-3)]Gal(b1-4)Glc
# Procedure, shortened: as §1
# [23] = molecular target: Neu5Ac(a2-3)Gal(b1-3)GalNAc(b1-4)[Neu5Ac(a2-8)Neu5Ac(a2-3)]Gal(b1-4)Glc
# Procedure, shortened: as §1
# [24] = molecular target: Neu5Ac(a2-3)Gal(b1-3)GalNAc6S
# Procedure, shortened: as §1
# [25] = molecular target: Neu5Ac(a2-3)Gal(b1-3)GlcNAc
# Procedure, shortened: as §1
binder,measurement,setting,value
B1567 (Bifidobacterium sp) (protein) MKFTTAKKAVALTGAVAMLVSVAACGSDSGKSSQPAQDSDVKEITVWAWEPSLTQVAKDFEKETGIKVDLKNVGTNTKEYTQLDNAIEAGSGAPDVAQVEYYAVPQYAIKGNLLDITDKTSGYKDFYTPGPWASVQFAGKVYGLPMDSGPMAFFYNKEVFDKAGVDAEQIKTWDQYYDAAKKIHALGDNYYITSDTGDAGFFDSMTWLAGAKPFQTSSDGSEVTVNLTEDKGVKTFTDFWQKLLDEGLLDTKTAGWSEDWFKGMVDGTIASLFTGAWMPANLANSAADGAGKWRVTQMPTADGSTTNSENGGSSLAVLASTKKADAAYQFIEYANHGAGVATRVAGGAFPADKASLEKDSFKNATTVKNADGQDVDYFGGQKYNEVLAQAAENVSSGYQFLPFEVKARTIFGDYFGKSYTGDQKLSDGVAAWQKALQDYGKDQGFTVK,glycan array binding signal (z-score),[1],-0.109
same,glycan array binding signal (z-score),[2],-0.173
same,glycan array binding signal (z-score),[3],-0.07
same,glycan array binding signal (z-score),GlcNAc(b1-6)GalNAc,-0.092
same,glycan array binding signal (z-score),[4],-0.139
same,glycan array binding signal (z-score),Kdn(a2-3)Gal(b1-3)GalNAc,-0.054
same,glycan array binding signal (z-score),Kdn(a2-3)Gal(b1-3)GlcNAc,-0.128
same,glycan array binding signal (z-score),Kdn(a2-3)Gal(b1-4)Glc,-0.115
same,glycan array binding signal (z-score),Kdn(a2-3)Gal(b1-4)GlcNAc,-0.15
same,glycan array binding signal (z-score),[5],-0.018
same,glycan array binding signal (z-score),Kdn(a2-6)Gal(b1-4)GlcNAc,-0.134
same,glycan array binding signal (z-score),[6],-0.101
same,glycan array binding signal (z-score),[7],-0.027
same,glycan array binding signal (z-score),Man(a1-2)Man(a1-3)Man,-0.155
same,glycan array binding signal (z-score),[8],-0.137
same,glycan array binding signal (z-score),[9],-0.086
same,glycan array binding signal (z-score),[10],-0.139
same,glycan array binding signal (z-score),[11],0.007
same,glycan array binding signal (z-score),[12],-0.045
same,glycan array binding signal (z-score),[13],-0.127
same,glycan array binding signal (z-score),Man(a1-3)[Man(a1-6)]Man,-0.05
same,glycan array binding signal (z-score),[14],-0.126
same,glycan array binding signal (z-score),[15],-0.188
same,glycan array binding signal (z-score),[16],-0.114
same,glycan array binding signal (z-score),[17],-0.086
same,glycan array binding signal (z-score),[18],-0.075
same,glycan array binding signal (z-score),Man(a1-6)Man,-0.162
same,glycan array binding signal (z-score),Man(b1-4)GlcNAc,-0.154
same,glycan array binding signal (z-score),MurNAc(b1-4)GlcNAc,-0.163
same,glycan array binding signal (z-score),Neu5Ac(a2-3)Gal,-0.108
same,glycan array binding signal (z-score),[19],-0.114
same,glycan array binding signal (z-score),[20],-0.06
same,glycan array binding signal (z-score),[21],-0.112
same,glycan array binding signal (z-score),[22],-0.092
same,glycan array binding signal (z-score),[23],-0.116
same,glycan array binding signal (z-score),[24],-0.104
same,glycan array binding signal (z-score),[25],-0.061
